These results are taken from the RNAGym collection of RNA variant scans (doi:10.1093/nar/gkz1192).

First the molecules themselves.
B1: CPEB3 Ribozyme (parent)
chain: UAACAGGGGGCCACAGCAGAAGCGUUCACGUCGCAGCCCCUGUCAGAUUCUGGUGAAUCUGCGAAUUCUGCUGUAUAUCUC

The source gives no read counts; variants with many changes may rest on few reads.

Variants of B1 are the subject of the data set. Nature of the data set: self-cleavage, relative activity (ratio to wild type); higher = more cleavage; in vitro, sequencing. In short, it runs like this: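 CPEB3 self-cleaving ribozyme mutant libraries were made by rounds of error-prone PCR, barcoded, and transcribed in vitro with T7 RNA polymerase for 5 hours at 37°C. Cleavage occurred during transcription and a 15 min DNase I step before EDTA stop. RNAs were reverse transcribed with template switching and Illumina-sequenced, with DNA sequencing mapping barcodes to variants. Relative activity is the variant's cleaved/total read fraction divided by wild type's (minimum 5 reads), averaged across three batches.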
With U1C G8A U49C A56G U67C U72A, the self-cleavage is 0.04.
Consider A2C C11U U67C U76C, for which the self-cleavage is 0.13.
Regarding U1G A2G U26A, the self-cleavage was 0.78.
In the case of A2G A20U U41C A64G, the self-cleavage is 0.33.
Turning to U1C U26C U31C A35C U43A U49A, the self-cleavage was determined as 0.39.
With A2C C32G A57G, the self-cleavage is 0.06.
With A2G A5U G22U, the self-cleavage worked out at 0.26.
U1C A18U A45G A47G U48C U67C: the self-cleavage was 0.05.
Take U1C A18G U72C A77U: the self-cleavage worked out at 0.29.
For A2G A18G A64G, the self-cleavage came to 0.54.
Consider U1C C40U A45G A57G U69C U74A, for which the self-cleavage was found to be 0.06.
As for U1C C62A U78A, the self-cleavage was found to be 0.09.
Regarding A2G A20G U26A A28G, the self-cleavage came to 0.61.
For the variant U1C C11G A18G G52A A65G, the self-cleavage was found to be 0.08.
On to U1C U26C U49C, for which the self-cleavage is 0.42.
Regarding A2G A5U U49C U54C U80C, the self-cleavage was found to be 0.41.
To U1C A18U A45G C62U belongs 0.16; to A2G A20U A56G, 0.46; to U1C A20G A45G G46A U78C, 0.38.
Take U1C A13U U49C: the self-cleavage was 0.45.
In the case of U1C U26A A35G U74C, the self-cleavage was found to be 1.37.
To A2G A5G G30A A45U U60C belongs 0.11.
For A2G A21G C81U the value was 0.7; for U1C A13U C38A A64G U80C, 0.17.
In the case of A2C A13G U43A U51G U78A U80A, the self-cleavage is 1.01.
In the case of U1C C11U U66C, the self-cleavage was found to be 0.25.
On to U1C C32A U41A A45G U54C A56U, for which the self-cleavage amounted to 0.04.
Consider U1C A64U U80C, for which the self-cleavage turned out to be 0.16.
With A2G A5G A15U C34U A56U, the self-cleavage was 0.27.
As to U1G G10A A28G U41A U74C U78A, the self-cleavage was 0.04.
A2G A15U A20G A21G U76C: the self-cleavage is 0.11.
To U1C A13G A35G belongs 0.51; to U1C G7A A13U A20G U58C U66C A77G, 0.04; to U1C G42A U76C U80C, 0.32.
For the variant U1C A15U A18U G42C U43A, the self-cleavage was found to be 0.05.
As for U1C A15G A28G A57U U58C, the self-cleavage was found to be 0.05.
Turning to U1C C23U U25A U26C U60C G70A, the self-cleavage stood at 0.04.
With U1C A18G U54C U60C, the self-cleavage turned out to be 0.12.
With U1C G8C G30U A64G A75G, the self-cleavage was found to be 0.12.
Turning to U1C A13C U25C, the self-cleavage turned out to be 0.52.
In the case of A2C A5U C27U A35G U69A, the self-cleavage was found to be 0.27.
Turning to U1C A13G U41A U49C U54C, the self-cleavage came out at 0.05.
To U1C U26C A64G A77U belongs 0.17; to U1C A13U A64G U80C, 0.95; to U1C A18G A64U A75G, 0.15.
On to A2G A3U G8A A45G U69C U76A, for which the self-cleavage came to 0.08.
As for U1G A64C A65U, the self-cleavage turned out to be 0.31.
In the case of U1C A21C U25G U54C U69G, the self-cleavage is 0.04.
With U1C U41A A47U, the self-cleavage came out at 0.1.
As for A2G A5U A35U U78C, the self-cleavage was 0.49.
To A2G A20G U25C U58C G73A belongs 0.62; to U1C A13U G24A U43A, 0.11.
As for U1C G30U A57G, the self-cleavage stood at 0.41.
In the case of U1C U25C U60C U72C, the self-cleavage was determined as 0.2.
In the case of U1C A18G U26C A35G G63A C68U U72C, the self-cleavage amounted to 0.14.
For the variant U1C G24A U69C, the self-cleavage turned out to be 0.15.
Turning to A2G A3G C37U U48C U51A, the self-cleavage was determined as 0.17.
To U1C A15G U58C C81U belongs 0.38; to U1C A35U A57G, 0.48; to U1C A56U A57G A77U, 0.17.
With A2G A3G A18G U78C, the self-cleavage came out at 0.72.
Turning to A2G A20U A28U G63A A75G, the self-cleavage stood at 0.08.
As to U1C U48C U60A U80A, the self-cleavage stood at 0.48.
For A2G A18U G19A U60A U76C U78C the value was 0.14; for U1C G33U C39U A57G U66C, 0.14.
In the case of A2G A20G C32U, the self-cleavage was determined as 0.36.
As to U1C A18U A20G G73U U74C, the self-cleavage stood at 0.33.
As to U1C U41G G46A U80C, the self-cleavage is 0.35.
Turning to A2C U26C A35U, the self-cleavage came to 0.4.
Turning to U1C A20G A75G, the self-cleavage amounted to 0.83.
On to A2C A35G U51C, for which the self-cleavage came out at 1.15.
For U1C A15G A21G C23G A28U U58C A64G, the self-cleavage was found to be 0.18.
To U1C A15U U51C U74A belongs 0.56; to U1G U51C U74C, 1.1; to U1C G9U A21G U43C A57C A65G, 0.05.
On to U1G U25C U60C A64U U69C G70U, for which the self-cleavage amounted to 0.14.
For A2G A13G U31A U54A U60C U74C the value was 0.09; for U1C A15G A20G C32A A77G U80C, 0.03.
With U1G A20G U48C A75G A77G, the self-cleavage came out at 0.07.
Regarding A2G A13U A35U U49C U60C A64G, the self-cleavage was determined as 0.11.
To U1C A13G U31C A45G G53U A64U C79U belongs 0.05.
To U1C G8U A45C A56U belongs 0.24; to U1C A21G U48C U54A U67A U76C, 0.07; to A2G A18G U54G, 0.46.
U1C C32U U74C A75G: the self-cleavage came out at 0.17.
For A2G A5G U54C, the self-cleavage is 0.85.
To A2G A20G U51C U72C belongs 0.36; to A2G A20G U41A A64G, 0.27; to A2G A3G G6C U41A U48C A64G, 0.47.
U1C U41C U49A U69A: the self-cleavage came out at 0.51.
Turning to A2G A18C A35U A64U, the self-cleavage worked out at 0.45.
Consider U1G U41A A57G, for which the self-cleavage stood at 0.45.
On to U1C A57G U58C U60C U72C, for which the self-cleavage stood at 0.16.
Turning to U1C C23A A35G U67C, the self-cleavage stood at 0.13.
To A2G A15U U54C U78C belongs 0.24; to U1C G8A A13U U26C U67C A75U, 0.04; to U1C U31A U43C U58C U69G, 0.09.
For U1C A28U U54C A65G U74A U80C the value was 0.46.
Consider A2G A5G C17U U25C C40A U60A A64G, for which the self-cleavage worked out at 0.07.
Take A2G A13G C23U U26C U31C: the self-cleavage stood at 0.06.
Take A2G A18G U54C A56U U80C: the self-cleavage was determined as 0.17.
As for U1C A5U G16C A57G A77G, the self-cleavage came to 0.12.
Turning to U1C A21G U51C G70U, the self-cleavage was 0.07.
With U1C G8A A20G C40A U51A U66C U80C, the self-cleavage worked out at 0.04.
For the variant A2G A20G G52U A56U A65G U76C, the self-cleavage stood at 0.06.
As to A2C C34A A65U U78C, the self-cleavage is 0.06.
As for U1G A28G U80A, the self-cleavage worked out at 0.97.
With U1C A13G C32U A45G C59A A65G U69A, the self-cleavage was 0.13.
To U1C G7U U26A C44U U67C A75G A77U belongs 0.04; to U1C A15G C23A G36A U80C, 0.27.
As to A2G A18G U25C U26C A28G U74G U76A, the self-cleavage came to 1.06.
As to U1C U26C A35G U58C U60C A64G, the self-cleavage is 0.26.
As to U1G C50A U54A A57G U72A, the self-cleavage turned out to be 0.14.
Consider U1C U26C A35G U49A A56G U72C, for which the self-cleavage is 0.31.
Take A2G A18G G22U U43C U60C: the self-cleavage worked out at 0.26.
On to U1C A18G A28G U72C G73C, for which the self-cleavage turned out to be 0.25.
Consider U1C A13G U43G C50G U67A, for which the self-cleavage was found to be 0.18.
A2G A18G U26C U41A: the self-cleavage worked out at 0.04.
Regarding U1C A5U U69C, the self-cleavage was 0.57.
To A2C U31A C38U U54G belongs 0.2.
To A2G A13U U66C belongs 0.23; to A2G A20G U25C U72A, 0.07.
Consider U1C C12U C17A U66C U69A, for which the self-cleavage was 0.17.
As for U1C U31C U51C U58C, the self-cleavage turned out to be 0.28.
For U1C C4U C50U, the self-cleavage worked out at 1.12.
Consider U1C U25C U43A, for which the self-cleavage is 0.23.
Take U1C A13G U41A A75G: the self-cleavage amounted to 0.27.
For U1C A21G A75U the value was 0.86.
Consider U1C A13U U41A U54C U58A, for which the self-cleavage was 0.08.
Consider U1C U26C U31G, for which the self-cleavage was determined as 0.5.
For U1C C40U U48C A56G U58C A64C, the self-cleavage was 0.06.
Regarding A2C A3U A35G A64G, the self-cleavage was 1.21.
U1C G9A U66C U67A: the self-cleavage amounted to 0.05.
For U1C A45G A47G A56U A57G A75G U76C the value was 0; for U1C A5U U51A, 1.21; for A2G A15G A47G, 0.47.
With U1G A15U A21G A64U, the self-cleavage was 0.17.
For U1C U25C U31C U41A, the self-cleavage was found to be 0.21.
To U1C A18U U26A C34G U72C belongs 0.27; to A2G A15G G24A U25C A35G G42A A64U, 0.28; to U1C U26A A35U C39G A45G A75U, 0.03.
As to A2C U43A A77C, the self-cleavage worked out at 1.01.
As for U1C G22C U31C U51C G61C U72A, the self-cleavage came out at 0.05.
Regarding U1C U51C U54C A65G, the self-cleavage was determined as 0.42.
U1C A28G U31C A35G: the self-cleavage is 1.02.
To A2G A15G A21G C23U A28G A57G U69A belongs 0.24; to A2G A13G A18G U49C U60C, 0.
To U1C U49C A56G belongs 1.
U1C U49C A56C: the self-cleavage was found to be 0.26.
For U1C C29U U74C the value was 0.78.
As to U1C C29G U78A, the self-cleavage worked out at 0.38.
Take A2G A15G U26C U41A U58C U80C: the self-cleavage turned out to be 0.08.
Take U1C U51C A64G: the self-cleavage was 0.74.
As to U1C A18G U25G U69A, the self-cleavage stood at 0.28.
To U1C G10A A18U U60C belongs 0.15; to U1C A20G U67C, 0.74.
Turning to A2G A20G U25A U43C U80A, the self-cleavage stood at 0.09.
Regarding U1C A20G C40A A64G, the self-cleavage turned out to be 0.25.
For U1C C14G U74C U80C, the self-cleavage came out at 1.21.
Take A2G A3G A13C A20G U51A: the self-cleavage was found to be 0.72.
As to A2C A3G U31G U51A, the self-cleavage was 0.71.
To U1G C4A C39A A47G U54A U69C belongs 0.11; to U1C U41A A47G A64G U80C, 0.07; to A2G A15G A45G U48C U80C, 0.05.
For U1C A20G G30U the value was 0.3; for U1C U48C U72C, 0.41.
To A2G A13U G16A U31A U41A U66A A75G belongs 0.04.
